Assay results published in publication PMC12136788.
The other results are listed elsewhere or left out.

B1: chr10:89774496:89774597:+|3pUTR|ENSG00000138182|msi1|FALSE|bound_elsewhere (ssRNA)
RNA: GGGAGUUCUACAGUCCGACGAUCAAGAUCUCAAGUCUUUAAUUAGAAUGUCUCACUUAUUUUGUAAACAUUUUGUGGGUACAUAGUACAUGUAUAUAUUUACGGGGUAUGUGAGAUGUUUUGACACAGGCAUGCAAUGUGAAACAACAGAGGAUUGAGCAUCA
B2: chr8:100287602:100287712:-|CDS|ENSG00000034677|unk|total|mutant (ssRNA)
RNA: GGGAGUUCUACAGUCCGACGAUCUGUGUGGAUUGCUUACGACAAUAUUUAAGGACCGAAAUCUCUGAAAGCAGAGUUAAUAUCCGUUGCCCAGAAUGUACUGAACGGUUUAAUCCCCAUGAUAUUCGCUUGAUAUUAAGUGAUCAACAGAGGAUUGAGCAUCA
B3: chr10:131940083:131940120:+|CDS_3pUTR|ENSG00000175470|msi1_unk|total|mutant (ssRNA)
RNA: GGGAGUUCUACAGUCCGACGAUCAUAUAAUGUUUACAGCACCUUUCAAAGUCAUGAACCGGAGUUUGACUAUUUGAAAAGUCCCGAAAUUGAGGAAAAAAUUAAUAAAAUCCGGUGGUUACCACAACAGAAUGCUGCUCAUUUCAACAGAGGAUUGAGCAUCA
B4: chr17:4937608:4937709:-|3pUTR|ENSG00000108528|msi1|FALSE|unique (ssRNA)
RNA: GGGAGUUCUACAGUCCGACGAUCAAGCGUCUCUUCCUCAGUGGCUGAAGCGGCCGGGGGCUCCCACUCGCCUGCUGCGCCUAUAGCCACUGCGCCCUGGGGGCCUGGGCUCUGCUGCCCUGGACCCCUCUAUUUAUUUCCCUUCAACAGAGGAUUGAGCAUCA
B5: ENSG00000107951:stop:overlap|stop_codon|ENSG00000107951|stop_codon|NA|stop_codon (ssRNA)
RNA: GGGAGUUCUACAGUCCGACGAUCUGCCACGUUCAAACAAGCAGCUUUUUGAAUUACUUUGUUAUGCAGAAAGUGUAAGUUUUUAGGUGUACCUCAACUUUUAGAACUAUGUAUUUUUUUAUGAACAAUAAAGAUUCCUGUAAACAACAGAGGAUUGAGCAUCA
B6: chr2:25232207:25232317:-|3pUTR|ENSG00000119772|unk|total|mutant (ssRNA)
RNA: GGGAGUUCUACAGUCCGACGAUCGGUGAGGGCCCGACGGGCAGGUGCUUGCCUGGGCCGAUGGGGUGCCGAUAUGUGGCAUACCGAGAUAUAUAUUUUAUAAUGGGAGGGGGGAUGGCACCUCCUGGGACUGGCCGAGCUGGGCAACAGAGGAUUGAGCAUCA
B7: chr16:8795179:8795951:-|three_prime_utr|ENSG00000184857|control|control|control (ssRNA)
RNA: GGGAGUUCUACAGUCCGACGAUCCCUGGGAACAUGUGUUUUGUGGUGAAUAAAUUCACAAGGCAAGAGCUGGUGUACAGGUUUAGGAAAAAGGCUCUAAGCAAGUUCUUACAGCACUUGUUUGUGACAUUCAGUCAGAUAAUGCAACAGAGGAUUGAGCAUCA
B8: ENSG00000070961:be:win_4601|3pUTR|ENSG00000070961|bound_else_gene|NA|bound_elsewhere_windowed (ssRNA)
RNA: GGGAGUUCUACAGUCCGACGAUCUCAGACUAUCAAACUACAAGAGAACCUUAGUCUUUUUUGUUUUUGUCUAAACAUGUUAGUUUAGUGAUGUCUUGGUGAACUGUGAGUGAACUGUAUUGAUUUUUCUAAUCUUUAGAGACCCAACAGAGGAUUGAGCAUCA
B9: ENSG00000198589:be:win_6901|CDS|ENSG00000198589|bound_else_gene|NA|bound_elsewhere_windowed (ssRNA)
RNA: GGGAGUUCUACAGUCCGACGAUCCUUGCAUGGCUGCUAAGAAUAGAACCCUUUACAACUUAUUUCCUAAAUUUGCAAGGAGGCAAAUUUGAUCAUGCAGAUCGAACUUUUUCAUCAAUUUCCAGAGCUUGGCGAAACAGUCAGCAACAGAGGAUUGAGCAUCA
B10: ENSG00000070961:be:win_4751|3pUTR|ENSG00000070961|bound_else_gene|NA|bound_elsewhere_windowed (ssRNA)
RNA: GGGAGUUCUACAGUCCGACGAUCGAAAAAGGUUAAUAAGUAGAAGCAUACAUGUUUUCCUUUUGUUUUUGAAACUUGUUUGUAAACAUAAAUAAAUAUGCCCUUUUAUUAAAUAAAUUCAUGGCAAUGUUUUUUUAAAAGACACAACAGAGGAUUGAGCAUCA
B11: ENSG00000107863:be:win_301|CDS|ENSG00000107863|bound_else_gene|NA|bound_elsewhere_windowed (ssRNA)
RNA: GGGAGUUCUACAGUCCGACGAUCACCAUAUUUGUUAAGCAAGUUAAAGAAGGAGGACCUGCUUUUGAAGCUGGAUUAUGUACAGGUGACCGAAUUAUAAAAGUCAAUGGAGAAAGUGUUAUUGGCAAAACCUAUUCCCAAGUACAACAGAGGAUUGAGCAUCA
B12: ENSG00000107863:be:win_3451|CDS|ENSG00000107863|bound_else_gene|NA|bound_elsewhere_windowed (ssRNA)
RNA: GGGAGUUCUACAGUCCGACGAUCGACUGCCCACCAGCUCAUACUAAUCGGUAUAUUCCAUUAAUAGUUGACAUAUGUUGCAAAUUAGUUGAAGAAAGAGGUCUUGAAUAUACAGGUAUUUAUAGAGUUCCUGGAAAUAAUGCACAACAGAGGAUUGAGCAUCA
B13: chrX:46853785:46853899:+|CDS|ENSG00000102218|unk|total|mutant (ssRNA)
RNA: GGGAGUUCUACAGUCCGACGAUCCAUCAUUGAGUCUUCCUCAAAUAUCAAAUUUGGAUGUUUUCAAUGGUACUAUCCUGAAUCCGCUUUCCAGUUCAAAGAUGCAGGGCUAAGUAUCUUCAACAAUACAUGGAGUAACAUUCACAACAGAGGAUUGAGCAUCA
B14: chr17:30468017:30468118:+|3pUTR|ENSG00000108582|unk|FALSE|unique (ssRNA)
RNA: GGGAGUUCUACAGUCCGACGAUCGCUAAAAUUUUGGGGAUAUGAUUUGGGUCUUUGAUUAAUGUCAGCUGAACUUGGAUUUCUAGUUCAUGAAGAAAUCUCUCCCAAUACCCAUUUAUCCUAUUUUUAGCAAUAAUUCGUUAACAACAGAGGAUUGAGCAUCA
B15: chr2:110123602:110123703:-|3pUTR|ENSG00000144061|unk|FALSE|unique (ssRNA)
RNA: GGGAGUUCUACAGUCCGACGAUCAUCCUCCACGAUUACGUGAAUAAAAUGAUGGAACCAAAAAUCACUGUCACUUUACAACUUAGGUUUUACUCUUUUCUUUCUACAGACCAUAUUUUUAAAGAAAUGUUUAUACAAUAAUUUCAACAGAGGAUUGAGCAUCA
B16: chr12:48147896:48148005:-|3pUTR|ENSG00000177981|unk|FALSE|unique (ssRNA)
RNA: GGGAGUUCUACAGUCCGACGAUCCUGCUUUAGUGAACGAUACUCUUUCAUUUUUCUAAAUUAGAUCAAGUUGUUAUUGAUUUUAGAUGACUUGUAUGCAAAUUUGAAAAACUUUUUUUUUUAAAGCUGAUUGGGAACUACAAACAACAGAGGAUUGAGCAUCA
B17: chr4:41955281:41955382:+|3pUTR|ENSG00000109133|msi1|FALSE|unique (ssRNA)
RNA: GGGAGUUCUACAGUCCGACGAUCGUAGGGGGAGGAGUUGUGGGGGAAUAAUGUGCAUUUCAGUCUCAACGCAUAGAUAAAUUUAGGGGAAUUGGAUGUAUUAUUCAACUUUGAUUUGGGUUGUAAAAUGUGUUAAAUCCUGUUCAACAGAGGAUUGAGCAUCA
B18: chr19:10133403:10133440:-|3pUTR|ENSG00000130816|msi1_unk|total|mutant (ssRNA)
RNA: GGGAGUUCUACAGUCCGACGAUCUUUUUUAUUAUGCAUUAUAUCAAAUCUACCACUGUAUGAGUGGAAAUUAAGACUUUAUGCCGUUUUUAUAUGUUGUAAUAUUUCUUCAAAUAAAUCUCUCCUAUAAACCACCCUGGGUGGCAACAGAGGAUUGAGCAUCA
B19: chr8:93923365:93923466:+|CDS|ENSG00000164951|msi1|total|mutant (ssRNA)
RNA: GGGAGUUCUACAGUCCGACGAUCGCAGGAUGUGGUCCGGAUUGUGGGUGAGUACCUAACUGGCAUGCAUCACCAACAGCCAACCGCUGUUGGUGGCUACAAGGUGACUCUGGGACAGAUGCAUGGCCUUUUAACAGAAAGGAGCAACAGAGGAUUGAGCAUCA
B20: chr1:45003092:45003193:-|3pUTR|ENSG00000126107|msi1|total|mutant (ssRNA)
RNA: GGGAGUUCUACAGUCCGACGAUCGGAAUCUUCCACAAGCCCAGCACAAGCUGCCAGGCCUGAGCUACUUGAAGGGGGCCAUCCCGGUCCCCAACCCAUGGACUUUGCCUCCAUUUUCAGCUCCGCCUUUUUUCUCCUAUUUUCCAACAGAGGAUUGAGCAUCA
B21: chrX:101163201:101163302:+|3pUTR|ENSG00000102384|unk|total|mutant (ssRNA)
RNA: GGGAGUUCUACAGUCCGACGAUCUCAUCAUCAGGCUCUGCGUUCUACCAAAUUGUAUGUAAAAAGACACAUCUGUUUUGUGGCCGGAUUUUUUCACAUUUUUGGGUACUAUGAGCUGCAUUGAUGGAAGACAGCAGGCAAUAUCAACAGAGGAUUGAGCAUCA
B22: chr5:60870179:60870280:-|3pUTR|ENSG00000049167|unk|total|mutant (ssRNA)
RNA: GGGAGUUCUACAGUCCGACGAUCUCUCCUUGCCCUUUUUGUUUUGUUUUGUUUCAAUUCUCCGAACUGCCGUUGGCAUGCCGCCGGUGCUUAAUAAUUACUUGUUUUGUUGUUUCUGUCCUAUACUUUGAGAGUUUGUGUUUGCAACAGAGGAUUGAGCAUCA

These binders were tested against MSI1 full-length (mouse, UniProt Q61474 1-362) (assay: nsRBNS (natural sequence RNA bind-n-seq); RBNS binding buffer (assumed for nsRBNS): 25 mM Tris pH 7.5, 150 mM KCl, 3 mM MgCl2, 0.01% Triton X-100, 500 ug/ml BSA, 20 U/ml SUPERase-In, 4 C; UNK is unkempt and MSI1 is Musashi-1; names of the RNAs are library labels; protein concentration not given here; high values mean tight binding).
Chain of UniProt Q61474 (Q61474 whole entry): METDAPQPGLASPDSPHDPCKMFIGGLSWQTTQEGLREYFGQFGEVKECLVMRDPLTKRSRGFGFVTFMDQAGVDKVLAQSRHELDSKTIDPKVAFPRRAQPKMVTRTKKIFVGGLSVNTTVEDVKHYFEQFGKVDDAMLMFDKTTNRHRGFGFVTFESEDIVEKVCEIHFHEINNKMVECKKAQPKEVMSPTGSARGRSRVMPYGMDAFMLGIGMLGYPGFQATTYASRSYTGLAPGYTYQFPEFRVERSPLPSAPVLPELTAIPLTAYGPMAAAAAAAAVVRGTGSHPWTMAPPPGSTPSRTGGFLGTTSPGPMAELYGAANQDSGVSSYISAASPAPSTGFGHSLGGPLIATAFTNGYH

| Binder | binding signal |
| --- | --- |
| B1 | 0.356 enrichment R |
| B2 | 0.307 enrichment R |
| B3 | 0.429 enrichment R |
| B4 | 0.56 enrichment R |
| B5 | 0.411 enrichment R |
| B6 | 0.592 enrichment R |
| B7 | 0.361 enrichment R |
| B8 | 3.69 enrichment R |
| B9 | 0.556 enrichment R |
| B10 | 0.501 enrichment R |
| B11 | 0.348 enrichment R |
| B12 | 4.54 enrichment R |
| B13 | 0.31 enrichment R |
| B14 | 0.334 enrichment R |
| B15 | 3.82 enrichment R |
| B16 | 1.15 enrichment R |
| B17 | 9 enrichment R |
| B18 | 1.75 enrichment R |
| B19 | 0.41 enrichment R |
| B20 | 0.44 enrichment R |
| B21 | 0.214 enrichment R |
| B22 | 1.79 enrichment R |
